# Data from the supplement of paper PMC11417369.
# ± gives the standard deviation of the averaged measurements. The list shows a part of the results.
# System: PfAP2-G AP2 domain (GST-tagged)
# Assay: gcPBM binding intensity (ln(normalized median fluorescence intensity)); higher = stronger DNA binding
# Procedure, shortened: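 Binding intensity is defined as the maximum Masliner-normalised natural-log median intensity across replicate spots for either probe orientation. It was measured on an Agilent 4 × 180k array of primer-extended double-stranded 36-bp intergenic genomic probes and negative controls, to which GST-tagged P. falciparum DNA-binding domains made in E. coli were applied for 1 h in 1× PBS with 1% milk, 0.2 mg/ml BSA, 0.5% salmon testes DNA and 0.03% Triton X-100. Detection was by Alexa488 anti-GST antibody and scanning at 488 nm.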
row,Sequence,gcPBM binding intensity (ln)
1,ACATATGAAAAATATGCATGCAAATATTATTTAACA [TGCATGCA_site802],9.73 ± 0.16
2,TATGTATGTTAGTGTGCACACATAAATATTATATAT [CACACA_site9121],10.5 ± 0.36
3,TTTTTAAAATTTTTAAAAATATTATGTTAAATATAT [CACACA_negctrl_site415],9.61 ± 0.085
4,TTTTATTTCAATCCACAAGGGATAAAATAAAGTTTT [CACACA_negctrl_site699],9.795 ± 0.049
5,GGATGTATTTATATGTGTATGTGTTTGGAAATATGT [XGTACX_negctrl_site99],10.11 ± 0.057
6,AATAAATAAAAATATATATATATAATATACATGTGT [TGCATGCA_negctrl_site369],9.81 ± 0.11
7,GATAATGAATGATGCACACTAAAAATATTCTACAAC [CACACA_site3622],10.185 ± 0.007
8,CAAATTGGGAAATTTTGTACATATAATAAGGATACC [XGTACX_site7728],10.9 ± 0.39
9,CCGTATATTTTATATAGTACTCATCATATATTTTTA [XGTACX_site5560],10.9 ± 0.56
10,AAACTCTCTTATATTAAACACACATATATATATGTA [CACACA_site8865],9.96 ± 0.28
11,GTTGGTAGGATGTATGGTACACGTAGTATTTTTCTT [XGTACX_site2],11.1 ± 0.62
12,AATAAAAATAAAATTGTATATTTTAAATGAAAATAA [CACACA_negctrl_site898],9.51 ± 0.35
13,AAAAACTTTTCAAGTAGTACCATATCTACAATAGTA [XGTACX_site8927],11.1 ± 0.76
14,AAACAAAAGATATATACACACTAAACATAAAAAAAA [CACACA_site6161],9.885 ± 0.007
15,CCTTTATTAAATAAATGTACATATTTTTGTGTTCTT [XGTACX_site2052],11.3 ± 0.72
16,TATTTTACAATAACAATACACACTATAATATATATA [CACACA_site1391],9.925 ± 0.092
17,TGTGTTCAGTATTGCACACACACAACCAAATAAAAA [CACACA_site379],10.4 ± 0.28
18,ATTCACATATTATCTTTACACACTATATATAAGTTT [CACACA_site8901],9.98 ± 0.099
19,ATAGATAAATTTACGGGTACTAAAATGGAATATGAA [XGTACX_site8637],11.3 ± 0.8
20,AATATATATAAATAAACACACACAAATATAATAAAA [CACACA_site9176],10.2 ± 0.2
21,GAAATGAACAAGTGGGTGCGTATTAATTACATATTA,10.4 ± 0.18
22,CATCAAAATGCTACATGTACATATATATAATATATT [XGTACX_site5207],11.2 ± 0.69
23,CATTTTCATTTTAAGGTGCATTAATATTTATTTTAA [GTGCAC_site9437],10.2 ± 0.36

row,Sequence,gcPBM binding intensity (ln)
1,TATATATATACATATTGTACATATTACATGCTATTA [XGTACX_site1184],10.9 ± 0.64
2,TCATTTTAAATATGTGTGCACGTTATAATTTACACA,10.4 ± 0.13
3,TTTTTAATTTTTTTTAAACACACACCGTACATTCAA [CACACA_site7925],10.8 ± 0.61
4,TACAACTTAATATGTACACACAAATATATATATATA [CACACA_site5138],11.4 ± 0.96
5,ATCAAAATTGTCATTACACACCTTTATTTTTAGAAT [CACACA_site1813],9.965 ± 0.092
6,ATTATTCTATATGAAACATGCATACATTTGTATTTT [TGCATGCA_site823],9.8 ± 0.11
7,ATATATGTAAATGAATGTACATTATTTTATATATTA [XGTACX_site8460],10.8 ± 0.52
8,GAAATACATTTTAAAAAATAAGTAATTATAAAATAA [TGCATGCA_negctrl_site303],9.57 ± 0.11
9,GATACCTATAGACACACACACATACCTATATACATA [CACACA_site7586],10.2 ± 0.2
10,ATTCATCCAATAATGTGAATTATCATGATAAACTTA [TGCATGCA_negctrl_site406],9.69
11,TTTATAAATAAACACACACACATGTGAACATAAAAA [CACACA_site5110],10.4 ± 0.2
12,ATATATTTATTATTAACATGCAATCATTATATATAA [TGCATGCA_site404],9.67 ± 0.014
13,TTAATATGAGAATAATGTACAAGAAAATATTACATA [XGTACX_site6609],10.9 ± 0.51
14,TTGGATTTTTCCTATGAACACACGGGGTTACAATTA [CACACA_site449],10.1 ± 0.14
15,TCCAATAATTTATAAAAAAAAAAAGGGAAAATGTAT [TGCATGCA_negctrl_site492],9.62 ± 0.11
16,AAAATAATAAAAAACTGTACGAATTAAAAATTAACA [XGTACX_site8454],11.1 ± 0.8
17,AAACATTTTCATTTGACACACATCATATATTTATAT [CACACA_site1794],10.2 ± 0.12
18,AATCTATCAAAGTGTACATGCAATAAAAAAAAAAAA [TGCATGCA_site103],11.2 ± 1.1
19,AAAAAATTATTATGAACACACATTTATTATATTCAT [CACACA_site1566],9.805 ± 0.049
20,TTCAAGATTTATTATACACACATATTAAAATATATA [CACACA_site4479],9.76 ± 0.11
21,TATATATATAAATACAGTACATATATAATATTTTGA [XGTACX_site637],10.7 ± 0.51
22,TAACTTAATTTTAATGCACACAATTTATATATATAT [CACACA_site6022],10.1 ± 0.18
23,AAAAATATATATATATATATATATATATTATTTTTT [TGCATGCA_negctrl_site378],9.46 ± 0.11

row,Sequence,gcPBM binding intensity (ln)
1,ATATGTACTATACGCACACACACTCACATATATATA [CACACA_site3239],11.4 ± 0.81
2,AATTATATGAAATAAACACACATATGCAATATTGCA [CACACA_site6988],9.875 ± 0.035
3,CTTTCATTTCTATCTACACACATATTTTTTCCAAGT [CACACA_site2972],10.18 ± 0.078
4,TTAATGTACAGACACCCACACACAAACAAATATATA [CACACA_site8888],11 ± 0.62
5,AAAAGAAAAAAAAGTACACACATGTATATTAAGCGT [CACACA_site5402],11.5 ± 0.83
6,GCGTGCGTGTACTTAACACACATAATATGTATTTAT [CACACA_site1247],11.3 ± 0.99
7,TTTTTTTTTCCCCCATGTACATAAATAAGTATATCT [XGTACX_site6965],11.5 ± 1
8,ATTATATATATCAGGTGTACGTAAAAAAAATGGACG [XGTACX_site1028],11.9 ± 0.81
9,TATAAAAATATATTTACACACTATAAATATCGAAAG [CACACA_site6896],9.96 ± 0.18
10,TAATTTATAAATATAATATTTATGTATATGATGTTT [CACACA_negctrl_site464],9.795 ± 0.078
11,GAGGTCTTTTTTAATGTGCACATATATATATATATA,10.7 ± 0.51
12,TTTTTTTATTAATGTAGTACAATATAATGTTATATT [XGTACX_site2295],11.6 ± 0.88
13,TTTTTTTTTTTTTTTACACACTCCAATAAAAAAGAA [CACACA_site2119],10.1 ± 0.51
14,TTTTTTCTCAAAAAAAAAACCTATGGTTATTAAGAT [XGTACX_negctrl_site534],9.9 ± 0.24
15,GTATATATATATAAAAGTACATGTTATGAAAAAAAA [XGTACX_site5410],11.3 ± 0.81
16,TATATATAGAAACACACACACATATATATATATATA [CACACA_site773],10.1 ± 0.22
17,ATTAAGTATATTTCTGCACACAAAAAAAAAAACCAA [CACACA_site9342],10.4 ± 0.38
18,TTATTTTTCAATGAAAAGGATTATATATATATATAT [CACACA_negctrl_site757],10.2 ± 0.7
19,TTATAATTCTATTATCTGTTCTTTTTATATTTTTTT [CACACA_negctrl_site855],9.64 ± 0.14
20,TTCTAAACACATTGACAAATTAATATATTACAGCAA [GTGCAC_negctrl_site121],9.93 ± 0.12
21,AAAATTTATAGTATGGTGCATAAAAATATATATATA,10.1 ± 0.36
22,TATAAGAAAAATAACACACACATAAACATAAATACA [CACACA_site5536],10.19 ± 0.042
23,AAAAAAAAAAAAAAATGTACATAAAAATGATATAAT [XGTACX_site4096],11.2 ± 0.49

row,Sequence,gcPBM binding intensity (ln)
1,TAAGTTATATGTACTACACACGTACACAAAATAAGA [CACACA_site9237],11.8 ± 1
2,ATCCACAAATTAACAAGTACATATATATATATATAT [XGTACX_site1267],11.3 ± 0.94
3,ACAATATATAAAATATGTACATAATATATATAATGA [XGTACX_site8731],11.2 ± 0.65
4,CCTAATTTTATTAGGGTGCATTTTTAGTTAAATATA,10.2 ± 0.37
5,TGATGAAAATTTTTCTGTACAAAAAGTATGAAGGTA [XGTACX_site8901],11.1 ± 0.51
6,AATTTAATATAATGCACACATAAAAAAAAATTCAAA [CACACA_site2062],9.91 ± 0.13
7,ATGAAAACCATGACGGGTACTCATTTATTATTTTAT [XGTACX_site6724],11.3 ± 0.79
8,ATTTATTTGTTTATTTGTTTATTTGTTTATTTGTTT [CACACA_negctrl_site1386],9.67 ± 0.057
9,ATTGTGTTAATAAAATGTACATTTTCTCTACTTTAA [XGTACX_site1199],10.8 ± 0.29
10,TGTAGAACAAAAAATTGTACATATTTGTAAAAAAAA [XGTACX_site3850],11.1 ± 0.61
11,TATATATATATGTGTAGTACAACAAATATGAAAAAT [XGTACX_site4059],11.7 ± 0.86
12,TTAAGAATCTATACTAGTACATATATGTATACAAGC [XGTACX_site8025],11 ± 0.52
13,ATATATATATGTAATAGTACATATGATAGTTTGTCA [XGTACX_site1545],11 ± 0.74
14,ATTAGTTTTATATATAGTACATATAATTTTGAAGGT [XGTACX_site7445],11.1 ± 0.77
15,ATCCATCTTTTAATTTGTACTTATTCTTTTTTCTTT [XGTACX_site5299],11.2 ± 0.73
16,AAAGATAAATTAAAAAGTACATATTTATTCAATGTA [XGTACX_site8543],11.2 ± 0.71
17,TTGTAATTTATTCAAACACACAATTTGGACCTTTTT [CACACA_site1063],10.3 ± 0.29
18,TATTCATAATTTTAATGTACAAAATGGTTTGTAATA [XGTACX_site8493],10.6 ± 0.33
19,TAAAAAAAACGAACAAGTACACATAAAAAAAAATTA [XGTACX_site5982],11.4 ± 0.86
20,ATTATATCATATATATGTACACATATATAACATGAT [XGTACX_site7],11.4 ± 0.92
